According to PubChem BioAssay AID1345082 (National Center for Advancing Translational Sciences (NCATS), 2018):
About 4,000 (4.3%) of roughly 94,000 compounds were called active. The inconclusive results got no clear call from the source; some entries with a clear call stand among them for comparison. The call rests on the fitted dose curve; in most records, active means well fitted inhibition curve with a large enough effect; inconclusive means small, poorly fitted or top-dose-only effect; inactive means no such curve, though single readings can be large or run the other way. Potencies of inconclusive entries are doubtful fits and often do not repeat.

Assay: Cytotoxic Profiling in NIH 3T3 Cell Line of Diverse Libraries Using Quantitative High-Throughput Screening; further: nearly all actives have a fitted effect of over 55% in size
Details: NIH 3T3 viability, CellTiter-Glo ATP luminescence, 48-72 h; series mostly up to 96.7 µM
Procedure, shortened: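 ATP-dependent luminescence (CellTiter-Glo) served as the viability signal for NIH 3T3 cells treated with compound for 48 or 72 hr at 37 °C.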
Potency means the concentration at half of the fitted maximal effect; tags describe the fitted curve by direction and shape.

SMILES	Potency
CCCCc1ncc(-c2c(-c3ccccc3)ncn2CCC2CCCN2C)[nH]1 (configuration not stated)	inactive
CC1Oc2ccc(NC(=O)COc3ccccc3)cc2CN(Cc2ccccc2Cl)C1=O (configuration not stated)	inconclusive: 35.5 µM [inhibitor, full curve, poor fit]
Cn1nccc1C(=O)NC1CCCN(c2cc(-c3ccc(F)cc3)[nH]n2)C1 (configuration not stated)	inactive
Cc1ccc(-n2nc3n(c2=O)CCN(C(=O)c2ccccc2Cl)C3)cc1	inconclusive: 50.1 µM [inhibitor, partial curve, poor fit]
COCCC(=O)NCC(=O)N1CCCCCNC(=O)CC1c1ccccc1 (configuration not stated)	inactive
Cc1csc(NC(=O)c2nc3c(o2)CCN(Cc2ccccc2F)CC3)n1	inconclusive: 44.7 µM [inhibitor, partial curve, poor fit]
O=C(c1ccc(Br)cc1)N1CCN(c2cc(-c3ccccc3)[nH]n2)CC1	inconclusive: 44.7 µM [inhibitor, partial curve, poor fit]
CC(C)c1nc(C2Cc3ccccc3N2C(=O)NC2CCCC2)no1 (configuration not stated)	inconclusive: 39.8 µM [inhibitor, partial curve]
Cc1ccc(NC(=O)Cn2ccn3nc4c(c3c2=O)CCCC4)cc1Cl	inactive
Cc1nc2c(c(-c3ccc(O)cc3)n1)CN(C(=O)C(C)(C)C)CC2	inconclusive: 50.1 µM [inhibitor, partial curve, poor fit]
COc1cccc(-c2ccc(NC(=O)C3CCCN3C(=O)Cn3cccn3)cc2)c1 (configuration not stated)	inactive
O=c1cc(N2CCOCC2)oc2c(Nc3ccccn3)nccc12	inconclusive: 89.1 µM [inhibitor, partial curve, poor fit]
COc1ccc(C(=O)NC2CCCN(c3cc(-c4ccccc4)[nH]n3)C2)cc1 (configuration not stated)	inconclusive: 44.7 µM [inhibitor, partial curve, poor fit]
O=C(CN1C(=O)NC2(CCCCC2)C1=O)Nc1ccc(C(F)(F)F)cc1	inconclusive: 11.2 µM [inhibitor, full curve, poor fit]
O=C(NCC1CC1)c1ccc2nnc(-c3ccc(Cl)cc3)n2c1	inconclusive: 89.1 µM [inhibitor, partial curve, poor fit]
CC(C)c1noc(-c2ccn3c(CNC(=O)c4cccc(N(C)C)c4)nnc3c2)n1	inconclusive: 79.4 µM [inhibitor, partial curve, poor fit]
COc1ccc(C(=O)N2CCn3c(nnc3-c3ccc(Cl)cc3)C2)cc1	inconclusive: 44.7 µM [inhibitor, partial curve, poor fit]
